# Source: PubChem BioAssay AID686970 (National Center for Advancing Translational Sciences (NCATS), 2013)
# Hit rate of the full screen: of about 360,000 compounds, about 6,000 (1.7%) were called active. Inconclusive means that the source gave no clear call. Such entries were picked first, then a sample of the others. Calls follow the shape of the dose curve; as a rule, active = well fitted cell-killing curve with a large enough effect; inconclusive = small, poorly fitted or top-dose-only effect, or effect the other way; inactive = flat fitted curve, though single readings scatter. No potency is given beside an inconclusive call; the fits are too rough.
# Assay: qHTS for induction of synthetic lethality in tumor cells producing 2HG: qHTS for the HT-1080-NT fibrosarcoma cell line;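 also: NT is the 2HG producing partner of a matched IDH1 knockdown line; nearly all actives have a fitted effect of over 55% in size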;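 as to activity, negative = less viability: 0% = DMSO-treated cells and -100% = media-only wells without cells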
# Conditions: HT-1080-NT fibrosarcoma viability, CellTiter-Glo ATP luminescence, 48 h; activity, negative = less viability: at 46.1 µM (top of the series)
# Outline: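 Read-out is CellTiter-Glo luminescence after 10 minutes at room temperature, following 48 hours' compound treatment of HT-1080-NT cells (750 cells/well, RPMI, 5% FBS, 37 degrees C).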
# Potency is read from the fitted curve at half-maximal effect; tags tell the direction and shape of the fitted curve.
Structure (SMILES),Potency,"activity, negative = less viability"
CCOC(=O)CNC(=O)N1Cc2cc(N3CCOCC3)ccc2-n2nncc2C1,"inconclusive [rising, partial curve]",
CCOCCC(=O)Nc1ccc2c(c1)c(=O)n(C)n2Cc1cccc(C(F)(F)F)c1,"inconclusive [rising, single point]",
Cn1c(O)c(C=NC2CCCCC2)c(=O)[nH]c1=S,inactive,
O=C(N/N=C/c1c(O)n(Cc2ccc(F)cc2)c(=O)[nH]c1=O)c1ccccc1O,"inconclusive [cytotoxic, single point]",
C=CCn1c(O)c(/C=C2\C=Nc3ccccc32)c(=O)[nH]c1=O,"inconclusive [rising, single point]",
O=C1NC(=O)N(c2ccccc2F)C(=O)/C1=C/c1cn(CC(=O)N2CCOCC2)c2ccccc12,"inconclusive [cytotoxic, single point]",
CN1CCN(c2ccc(/C=C3\C(=O)NC(=S)N(c4cccc(Br)c4)C3=O)o2)CC1,"inconclusive [cytotoxic, single point]",
O=[N+]([O-])c1ccc(Cl)cc1,"inconclusive [rising, full curve, poor fit]",
COc1ccc(SCC2CN(C)CCC2c2ccc(F)cc2)cc1 (centres undefined),"inconclusive [cytotoxic, single point]",
O=C1NCN(c2ccccc2)C12CCN(C(CCc1ccccc1)c1nnnn1Cc1ccccc1)CC2 (centres undefined),"inconclusive [cytotoxic, single point]",
O=c1[nH]cnc2nc(-c3ccc(N(CCCl)CCCl)cc3)[nH]c12,"inconclusive [cytotoxic, full curve, poor fit]",
CC(C)C[C@H](NC(=O)[C@@H]1CCCN1C(=O)[C@@H](N)Cc1ccc(O)cc1)C(=O)NCC(N)=O,"inconclusive [rising, partial curve]",
CC(=O)OCC12CC(OC(=O)CC(C)C)C(C)=CC1OC1C(O)C(OC(C)=O)C2(C)C12CO2 (centres undefined),active: 0.259 µM,
CC(=O)Nc1cccc(-c2ccnc3c2CC(C(=O)NCc2ccco2)O3)c1 (centres undefined),"inconclusive [cytotoxic, full curve, poor fit]",
COc1ccc(CCNCc2c(OC)ccc3ccccc23)cc1,"inconclusive [cytotoxic, single point]",
O=c1[nH]c(O)c(C=Nc2ccccc2Oc2ccccc2)c(=O)[nH]1,inactive,
c1ccc2nc(N3CCNCC3)ccc2c1,"inconclusive [cytotoxic, single point]",
C[N+](C)(C)CCCCCCCCCC[N+](C)(C)C,"inconclusive [rising, single point]",
CCOC(=O)[C@]12Cc3ccccc3[C@H]1N(Cc1ccccc1)C(=O)c1cc(F)c(F)cc12,"inconclusive [cytotoxic, single point]",
C[n+]1ccc(-c2ccccc2)c2ccccc21,"inconclusive [cytotoxic, single point]",
CC12CCC3C(CCC4(O)CC(O)CCC34C=O)C1(O)CCC2C1=CC(=O)OC1 (centres undefined),active: 1.64 µM,
CCOP(=O)(OCC)c1nc(-c2cccc3ccccc23)oc1N1CCCCC1,"inconclusive [cytotoxic, single point]",
COC(=O)Nc1nc2ccccc2[nH]1,"inconclusive [cytotoxic, single point]",
CN1CCN(c2ccc([N+](=O)[O-])c3no[n+]([O-])c23)CC1,active: 2.91 µM,

Structure (SMILES),Potency,"activity, negative = less viability"
CCC(C)C1NC(=O)C(NC(=O)C(CC(C)C)N(C)C(=O)C2CCCN2C(=O)C(C)O)C(C)OC(=O)C(Cc2ccc(OC)cc2)N(C)C(=O)C2CCCN2C(=O)C(CC(C)C)NC(=O)[C@H](C)C(=O)[C@H](C(C)C)OC(=O)CC1O (some centres undefined),active: 0.231 µM,
C[C@]12CC[C@H](O)C[C@H]1CC[C@@H]1C2CC[C@]2(C)[C@@H](C3=CC(=O)OC3)[C@@H](O)C[C@]12O (some centres undefined),active: 5.8 µM,
CC(C)CN1CCN(Cc2cccc3c2OCO3)CC1CCO (centres undefined),inactive,
Clc1ccc(CSC(Cn2ccnc2)c2ccc(Cl)cc2Cl)cc1 (centres undefined),"inconclusive [cytotoxic, single point]",
CC(C)[C@H](CN(N=O)[C@@H](Cc1ccccc1)CN(C)N=O)N(CCc1ccccc1)N=O,"inconclusive [cytotoxic, partial curve]",
CCOC(=O)c1c(C)n(Cc2ccccc2)c2ccc(OCC(O)Cn3nc(C)cc3C)cc12 (centres undefined),"inconclusive [cytotoxic, single point]",
CC1CN1P(=O)(Oc1ccccc1)N1CC1C (centres undefined),inactive,
CCCCCCCCN1C(=O)[C@H](CC(=O)NCCc2ccccc2OC)C[C@@]2(C(=O)OC)CCCCC=C12,"inconclusive [cytotoxic, single point]",
COc1cccc(C(c2nnnn2-c2c(C)cccc2C)N2CCC(n3c(=O)[nH]c4ccccc43)CC2)c1OC (centres undefined),"inconclusive [cytotoxic, single point]",
CC(=O)Nc1ccccc1C(=O)OCC(=O)c1ccc2c(c1)OCCO2,inactive,
CC(=O)OC1(C)CC(C)C(=O)C(C(O)CC2CC(=O)NC(=O)C2)C1 (centres undefined),active: 1.64 µM,
O=C/C=C/c1ccccc1,"inconclusive [rising, single point]",
Cc1cccc(NP(=O)(Oc2ccccc2F)Oc2ccccc2F)c1C,"inconclusive [cytotoxic, single point]",
Nc1c(C(=O)NCC2CCCO2)c2nc3ccccc3nc2n1Cc1ccco1 (centres undefined),"inconclusive [cytotoxic, single point]",
C/C(=N\Nc1ccccc1)c1c(O)n(C)c(=O)n(C)c1=O,"inconclusive [cytotoxic, partial curve]",
Cc1cc([N+](=O)[O-])c2ccccc2[n+]1[O-],active: 6.51 µM,
CCCC[N+]1(C)[C@@H]2CC(OC(=O)[C@H](CO)c3ccccc3)C[C@H]1[C@@H]1O[C@@H]12 (some centres undefined),"inconclusive [rising, partial curve]",
CCOC(=O)[C@]12Cc3cc(OC)ccc3[C@H]1N(C)C(=O)c1cc(OC)ccc12,"inconclusive [cytotoxic, single point]",
CCOC(=O)C1=C(NC(=S)NC(=O)c2ccccc2)c2ccccc2CC12CCCC2,"inconclusive [cytotoxic, partial curve, poor fit]",
Cn1c(O)c(/C=N/Nc2ccccc2)c(=O)n(C)c1=O,active: 8.2 µM,
CC(=O)[C@H]1CC[C@H]2[C@@H]3CCC4=CC(=O)CC[C@]4(C)[C@H]3CC[C@]12C,"inconclusive [cytotoxic, partial curve, poor fit]",inconclusive: -27.9% [cytotoxic]
O=C1NCN(c2ccccc2)C12CCN(C(c1cccc3ccccc13)c1nnnn1C1CCCC1)CC2 (centres undefined),"inconclusive [cytotoxic, single point]",
Cc1cc(NC(=O)CCl)nn1C,"inconclusive [cytotoxic, partial curve]",
Cc1ccc(-n2c(O)c(/C=N/Nc3ccccc3)c(=O)[nH]c2=O)cc1C,,inconclusive: 0% [cytotoxic]
